From the supplement of paper PMC3334620
The full ranking holds about 33,000 sequences; the median of “E-score (-0.5 to 0.5)” is about -0.035, and the highest 2% start at about 0.34. The list shows a part of the results.

These sequences were tested against T1, Mot3 (UniProt P54785) (assay: PBM E-score (8-mer binding enrichment) (E-score (-0.5 to 0.5)); higher = stronger / more preferred TF binding; most listed sequences are background and not binding sites). Conditions: protein concentration: 200 nM; construct: GST-full length.
T1 sequence: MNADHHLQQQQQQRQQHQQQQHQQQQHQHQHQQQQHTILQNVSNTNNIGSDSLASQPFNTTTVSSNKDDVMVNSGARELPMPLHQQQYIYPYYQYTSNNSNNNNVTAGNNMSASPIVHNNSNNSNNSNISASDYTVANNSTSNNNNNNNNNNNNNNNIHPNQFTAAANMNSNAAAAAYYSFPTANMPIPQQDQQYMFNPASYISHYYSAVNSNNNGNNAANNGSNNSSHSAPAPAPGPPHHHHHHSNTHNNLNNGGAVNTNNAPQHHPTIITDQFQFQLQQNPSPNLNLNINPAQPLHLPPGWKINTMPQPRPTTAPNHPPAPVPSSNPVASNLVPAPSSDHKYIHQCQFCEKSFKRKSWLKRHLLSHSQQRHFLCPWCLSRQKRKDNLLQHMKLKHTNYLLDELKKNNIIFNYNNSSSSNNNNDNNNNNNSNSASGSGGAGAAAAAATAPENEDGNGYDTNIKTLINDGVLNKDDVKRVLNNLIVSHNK
Experimental: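 Universal 'all 10-mer' protein binding microarrays (Agilent AMADID 015681) probed with GST-tagged S. cerevisiae TFs (full-length or DBD) made by in vitro transcription/translation (PURExpress), about 100-200 nM. Bound TF was detected with fluorescent anti-GST. Each ungapped 8-mer (which stands for itself and its reverse complement) is scored by the PBM enrichment score (E-score), a modified Wilcoxon-Mann-Whitney statistic from -0.5 to +0.5, computed with the Universal PBM Analysis Suite. Scale: above 0.35 generally sequence-specific binding.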

Sequence	PBM E-score
AACAAGCG	0.211
TACCGAAA	0.0135
TACACAGA	0.33
CCTTACAC	0.298
AAGAAGCT	-0.00753
ATGCTTAG	0.0516
GGAGCTAA	-0.0703
AACATGGT	0.297
TGAGCTAA	-0.083
AGAGACAA	-0.146
GATAGGCA	0.473
CAAACTCC	-0.0232
AGGATTAA	0.0264
ATGGTCAG	-0.109
GAACTGGA	-0.0796
TATGAAAA	0.00052
CGCGTGAA	0.172
CATAGGGG	-0.236
GCCGACCA	-0.166
GGACGCCA	-0.282
ACAAATGA	0.113
AGACTACT	0.0356
ATCCTAAC	0.137
CGAGCCGC	-0.0992
AGGTAAGG	0.254

Sequence	PBM E-score
GCATTGAA	0.0529
GTAGCGAC	-0.0445
CGTAAAAC	0.202
CGACATTA	0.151
GTAGCCTA	0.177
ACTCTGAC	-0.157
GGCCTAGA	-0.201
AGGTAGTC	-0.0855
AGCCAGAC	-0.109
ATCCTGGA	0.00329
GGTCCATA	-0.176
ATGATTTC	0.0179
CCCCCAGG	-0.159
GTGAAACA	0.103
GGGGGATA	-0.283
GCGCTACA	0.0184
AAATGTCC	0.00503
AATGGCGT	-0.0278
AAATTCCC	-0.107
AAGTAAGA	0.124
GGCCAGGA	-0.232
CGTGTCCC	-0.0172
ACTCATCG	-0.0267
GACAGGAC	-0.231
GCTAACGA	-0.117

Sequence	PBM E-score
AACTTACA	0.284
CATAAATG	-0.172
CATCTTTC	0.174
ACACCCAT	-0.0356
TCACCCCA	-0.125
AATATCCA	0.053
AGTATGAC	-0.103
CACCCCAG	-0.066
CCGTCAAC	-0.138
AATCCACA	-0.0213
AGGTTGGG	-0.173
GAGTGGAC	-0.192
GCGATGAC	-0.0443
AAAATGTG	0.0732
CCGTGATA	-0.153
ATATAGAT	0.0278
AACCCACG	-0.112
GTCGTGTA	0.376
ATCGGCAT	-0.0895
CACTCTTC	-0.209
CCATAGCC	-0.296
CAGCCCCG	-0.0445
CCGGCCGA	-0.333
TAGCGTCA	-0.118
CACGCAGG	0.316

Sequence	PBM E-score
CGACAGCC	-0.216
AAGACATC	-0.0992
GTTAATGA	0.124
AAGCTAGA	-0.186
GGAAGATA	-0.0613
CGCACCTC	-0.0771
AAACCAGG	-0.076
ACCCTCAC	-0.277
GATTTCCA	-0.131
ATAGCTGA	-0.182
CATGTTAC	0.332
GTAGCAAA	0.0238
CAGTTGCA	-0.063
CTCATAAG	-0.0998
TCTGCGCA	0.00968
AGAGGTAC	-0.0723
CGAAATAG	0.0515
CTCGAAGC	-0.037
AAGTAGAA	0.0505
ACAAGACC	0.094
ACCAGGAG	-0.061
GCCGCGAA	-0.332
CTAATAGA	0.0893
ATATAGTA	0.169
CATCCCCC	-0.304

Sequence	PBM E-score
CGTCCGAC	0.0527
GACGAAGC	-0.0978
GGAACGAC	0.134
ACTTGAGC	-0.218
GATTTTAC	0.167
ACATGAGT	0.279
GTCGTGGA	-0.26
CCTATATC	0.0144
AATTCCTC	-0.0457
AATAGACT	-0.0514
ACTCTCCC	-0.284
ACCAAGGA	0.184
ATCGGGGC	-0.171
CCGTGTAC	0.34
CAGTACTA	-0.0199
ATAACCCC	-0.207
CTTCCATC	-0.16
CGACCAGA	-0.12
GATCTTGC	0.007
ATCAGTTG	0.00124
AAGCGCGA	-0.206
GACATAGC	0.111
ATCGCACG	-0.0828
TCGGCAAA	-0.134
GAGCGATC	-0.313

Sequence	PBM E-score
ACCACTTG	-0.0392
CAAGGATA	-0.0115
CACGGTAG	-0.0486
CCCCTACG	-0.21
CCAGCTTC	-0.187
CGCACTAC	-0.134
CCCAAAAC	0.0863
AGCCCCTC	-0.202
CACTAGTG	-0.12
CATTATGA	-0.16
GTCGTTAA	0.078
AGACGGGG	-0.321
GGCGAAGA	-0.144
CTGAATAA	0.0747
TAATTATA	0.206
ACTATTGA	-0.0506
GAGTATGA	-0.008
AGTGGATA	-0.17
TCCGATAA	-0.172
ATCGCTTA	-0.159
GACGGATA	-0.11
AGATTCGG	0.0498
AGCACATC	-0.0674
TGCACTAA	0.0486
CGGGGGAG	-0.248

Sequence	PBM E-score
ACGTCTTG	0.0197
CTATGGAC	-0.12
TATCCACA	0.0608
ATTGCTGG	-0.17
AGTTTCCA	-0.214
ACAATCCT	0.0286
CACATATG	0.0157
ATGTGTCA	0.153
AACCCTGC	-0.198
GATTTATA	0.12
CTGGCTAC	-0.161
CGGGCTGC	-0.142
GTACCTAA	0.374
ACCCGCCC	-0.0478
AACTCTGG	-0.105
AATAATCC	0.134
CGTAGCTA	-0.0484
CATTCTAC	0.173
AGCATCGC	-0.31
AGCGTATG	-0.0586
GACTCCTA	-0.00028
CCCGGGTA	0.011
